Measured values published in the supplement of paper PMC4604168 (melanoma cell lines).
This is one part of the list. Repeats are few or missing, and single values can be far off.

Legend:
Test in all cases: cell count relative to DMSO control; melanoma cells; higher = more viable cells
Conditions in all cases: library dose: low library concentration; 72 h
MZ2-MEL = tested on: MZ2-MEL
MeWo = tested on: MeWo
RPMI7951 = tested on: RPMI7951
RVH-421 = tested on: RVH-421
SkMel28 = tested on: SkMel28
SkMel2 = tested on: SkMel2
SkMel30 = tested on: SkMel30
UACC62 = tested on: UACC62
WM115 = tested on: WM115
WM1716 = tested on: WM1716
WM1745 = tested on: WM1745
WM3526 = tested on: WM3526
WM3619 = tested on: WM3619
WM451Lu = tested on: WM451Lu
SkMel5 = tested on: SkMel5
UACC257 = tested on: UACC257
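Note: cell number obtained by counting DAPI-stained nuclei in high-throughput microscope images with image analysis software, screen run in 1,536-well plates.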

COc1cc([C@@H]2c3cc4c(cc3[C@@H](O[C@@H]3O[C@@H]5CO[C@@H](C)O[C@H]5[C@H](O)[C@H]3O)[C@H]3COC(=O)[C@H]23)OCO4)cc(OC)c1O [etoposide] + O=C(Nc1cc(C(F)(F)F)cc(C(F)(F)F)c1)c1cc(Cl)ccc1O [IMD0354] (first compound 0.02 µM, partner dose 0.016 µM)
cell count (MZ2-MEL): 101% | cell count (MeWo): 91% | cell count (RPMI7951): 86.7% | cell count (RVH-421): 104% | cell count (SkMel28): 79.1% | cell count (SkMel2): 97.9% | cell count (SkMel30): 88.9% | cell count (UACC62): 69.6% | cell count (WM115): 94.1% | cell count (WM1716): 91.2% | cell count (WM1745): 102% | cell count (WM3526): 87.4% | cell count (WM3619): 112% | cell count (WM451Lu): 99.1%

COc1cc([C@@H]2c3cc4c(cc3[C@@H](O[C@@H]3O[C@@H]5CO[C@@H](C)O[C@H]5[C@H](O)[C@H]3O)[C@H]3COC(=O)[C@H]23)OCO4)cc(OC)c1O [etoposide] + NC1(c2ccc(-c3nc4ccn5c(=O)[nH]nc5c4cc3-c3ccccc3)cc2)CCC1 [MK2206] (first compound 0.02 µM, partner dose 0.4 µM)
cell count (MZ2-MEL): 80.9% | cell count (MeWo): 69.6% | cell count (RPMI7951): 95.6% | cell count (RVH-421): 92.4% | cell count (SkMel28): 67.5% | cell count (SkMel2): 71.1% | cell count (SkMel30): 76.2% | cell count (UACC62): 62.4% | cell count (WM115): 69.9% | cell count (WM1716): 108% | cell count (WM1745): 98.4% | cell count (WM3526): 77.5% | cell count (WM3619): 113% | cell count (WM451Lu): 60.7%

COc1cc([C@@H]2c3cc4c(cc3[C@@H](O[C@@H]3O[C@@H]5CO[C@@H](C)O[C@H]5[C@H](O)[C@H]3O)[C@H]3COC(=O)[C@H]23)OCO4)cc(OC)c1O [etoposide] + CO[C@H]1C[C@@H]2CC[C@@H](C)[C@@](O)(O2)C(=O)C(=O)N2CCCC[C@H]2C(=O)O[C@H]([C@H](C)C[C@@H]2CC[C@@H](OCCO)[C@H](OC)C2)CC(=O)[C@H](C)/C=C(\C)[C@@H](O)[C@@H](OC)C(=O)[C@H](C)C[C@H](C)/C=C/C=C/C=C/1C [everolimus] (first compound 0.02 µM, partner dose 0.02 µM)
cell count (MZ2-MEL): 69.1% | cell count (MeWo): 69.9% | cell count (RPMI7951): 81.6% | cell count (RVH-421): 86.5% | cell count (SkMel28): 52.8% | cell count (SkMel30): 61.6% | cell count (UACC62): 54.6% | cell count (WM115): 76.9% | cell count (WM1716): 76.5% | cell count (WM1745): 90.6% | cell count (WM3526): 111% | cell count (WM3619): 62.4% | cell count (WM451Lu): 106%

Cn1cnc2c(F)c(Nc3ccc(Br)cc3Cl)c(C(=O)NOCCO)cc21 [selumetinib] + OCCn1cc(-c2cnc3nnn(Cc4ccc5ncccc5c4)c3n2)cn1 [PF04217903] (first compound 0.015 µM, partner dose 1 µM)
cell count (MeWo): 86.3% | cell count (RPMI7951): 113% | cell count (RVH-421): 80.2% | cell count (SkMel28): 72.8% | cell count (SkMel30): 73.8% | cell count (SkMel5): 87% | cell count (UACC257): 73.9% | cell count (UACC62): 76.6% | cell count (WM115): 84.3% | cell count (WM1716): 105% | cell count (WM1745): 106% | cell count (WM3526): 83.1% | cell count (WM3619): 90.5% | cell count (WM451Lu): 96.5%

COc1cc([C@@H]2c3cc4c(cc3[C@@H](O[C@@H]3O[C@@H]5CO[C@@H](C)O[C@H]5[C@H](O)[C@H]3O)[C@H]3COC(=O)[C@H]23)OCO4)cc(OC)c1O [etoposide] + O=C(/C=C/c1cccnc1)NCCCCC1CCN(C(=O)c2ccccc2)CC1 [FK866] (first compound 0.02 µM, partner dose 0.01 µM)
cell count (MeWo): 96.5% | cell count (RPMI7951): 98.8% | cell count (RVH-421): 66% | cell count (SkMel28): 103% | cell count (SkMel2): 46.8% | cell count (SkMel30): 110% | cell count (UACC62): 87.8% | cell count (WM115): 90.1% | cell count (WM1716): 92.4% | cell count (WM1745): 89.9% | cell count (WM3526): 109% | cell count (WM3619): 69.6% | cell count (WM451Lu): 113%

C[C@]1(O)C[C@@H](c2nc(-c3ccc4ccc(-c5ccccc5)nc4c3)c3c(N)nccn32)C1 + CCCCCCCCc1ccc(CCC(N)(CO)CO)cc1 [fingolimod] (first compound 0.4 µM, partner dose 2 µM)
cell count (MZ2-MEL): 94.1% | cell count (MeWo): 80.9% | cell count (RPMI7951): 68.4% | cell count (RVH-421): 95.6% | cell count (SkMel28): 78.7% | cell count (SkMel30): 74.5% | cell count (UACC62): 75.5% | cell count (WM115): 90.7% | cell count (WM1716): 74% | cell count (WM1745): 65% | cell count (WM3526): 74.5% | cell count (WM3619): 113% | cell count (WM451Lu): 97.7%

C[C@]1(O)C[C@@H](c2nc(-c3ccc4ccc(-c5ccccc5)nc4c3)c3c(N)nccn32)C1 + C[C@@H]1CCN(C(=O)CC#N)C[C@@H]1N(C)c1ncnc2[nH]ccc12 [CP690550] (first compound 0.4 µM, partner dose 1 µM)
cell count (MeWo): 103% | cell count (RPMI7951): 130% | cell count (RVH-421): 127% | cell count (SkMel28): 104% | cell count (SkMel2): 83% | cell count (SkMel30): 83.7% | cell count (SkMel5): 99.1% | cell count (UACC257): 69.9% | cell count (UACC62): 105% | cell count (WM115): 101% | cell count (WM1716): 110% | cell count (WM1745): 111% | cell count (WM3526): 79.9% | cell count (WM3619): 102% | cell count (WM451Lu): 87.8%

CCN(CC)CCNC(=O)c1c(C)[nH]c(/C=C2\C(=O)Nc3ccc(F)cc32)c1C [sunitinib] + CNC(=O)c1cc(Oc2ccc(NC(=O)Nc3ccc(Cl)c(C(F)(F)F)c3)cc2)ccn1 [sorafenib] (first compound 0.4 µM, partner dose 0.4 µM)
cell count (MZ2-MEL): 92.7% | cell count (MeWo): 92.4% | cell count (RPMI7951): 115% | cell count (RVH-421): 113% | cell count (SkMel28): 94.1% | cell count (SkMel2): 95.5% | cell count (SkMel30): 79.2% | cell count (UACC62): 84.2% | cell count (WM115): 93.8% | cell count (WM1716): 147% | cell count (WM1745): 71.4% | cell count (WM3526): 79.9% | cell count (WM3619): 122% | cell count (WM451Lu): 109%
